± gives the standard error. Variants at the background level are over-represented here.
B1: glmS ribozyme (parent)
chain: AUAAAAGCGCCAGAACUACAGAAAUGUAGUUGACGAGGAGGAGGUUUAUCGAAUUUUCGGCGGAUGCCUCCAAA

Assays:
Conditions in all cases: with glucosamine-6-phosphate
glucosamine-6-phosphate [1] = variants of: B1; test: self-cleavage kobs at 40 uM GlcN6P; higher = faster cleavage; RNA array
How it was run: (§1)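 kobs was derived by fitting per-tile medians to one- or two-exponential decays after normalising signals to baseline and to non-cleaving reference variants. Those signals came from barcoded ribozyme variants transcribed in situ by E. coli RNA polymerase on sequenced MiSeq chips, followed through a hybridised Cy3 probe at 37 °C and imaged over ~14 h. Glucosamine-6-phosphate (40 μM to 10 mM) in HEPES/KCl/Mg(OAc)2 buffer was flowed in. Weighted Michaelis–Menten fits across concentrations then gave kcat and KM.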

glucosamine-6-phosphate [2] = variants of: B1; test: self-cleavage kobs at 10000 uM GlcN6P; higher = faster cleavage; RNA array
How it was run: as §1

glucosamine-6-phosphate [3] = variants of: B1; test: self-cleavage kobs at 640 uM GlcN6P; higher = faster cleavage; RNA array
How it was run: as §1

glucosamine-6-phosphate [4] = variants of: B1; test: self-cleavage kobs at 2500 uM GlcN6P; higher = faster cleavage; RNA array
How it was run: as §1

glucosamine-6-phosphate [5] = variants of: B1; test: self-cleavage kobs at 160 uM GlcN6P; higher = faster cleavage; RNA array
How it was run: as §1

| Variant | self-cleavage kobs at 40 uM GlcN6P (glucosamine-6-phosphate [1]) [s⁻¹] | self-cleavage kobs at 10000 uM GlcN6P (glucosamine-6-phosphate [2]) [s⁻¹] | self-cleavage kobs at 640 uM GlcN6P (glucosamine-6-phosphate [3]) [s⁻¹] | self-cleavage kobs at 2500 uM GlcN6P (glucosamine-6-phosphate [4]) [s⁻¹] | self-cleavage kobs at 160 uM GlcN6P (glucosamine-6-phosphate [5]) [s⁻¹] |
| --- | --- | --- | --- | --- | --- |
| A6U G29A U30C | < 1e-05 | < 1e-05 | – | – | – |
| G7C G35A | < 1e-05 | < 1e-05 | < 1e-05 | < 1e-05 | – |
| G7C G35C | < 1e-05 | < 1e-05 | < 1e-05 | < 1e-05 | < 1e-05 |
| G7U U30C G60C C71U | < 1e-05 | – | < 1e-05 | < 1e-05 | – |
| G7U G13C C67U | < 1e-05 | < 1e-05 | – | – | – |
| C8A A15U A36G | < 1e-05 | – | – | – | – |
| G7C C50A G60C | < 1e-05 | – | – | < 1e-05 | – |
| G7U G40U A48U G66U C68A | < 1e-05 | < 1e-05 | – | – | – |
| G7U U49A A52C G60C C61U | < 1e-05 | < 1e-05 | < 1e-05 | < 1e-05 | – |
| G7C A15G | < 1e-05 | – | – | – | – |
| G7A G38C G40U U47A | < 1e-05 | – | – | – | – |
| G7U U31A G32U G41U A48U | < 1e-05 | – | – | – | – |
| G7C G37C | < 1e-05 | < 1e-05 | – | < 1e-05 | – |
| G7U C16U G38C | < 1e-05 | – | < 1e-05 | < 1e-05 | < 1e-05 |
| G7U A48C | < 1e-05 | < 1e-05 | < 1e-05 | – | – |
| G7U G32A U47C G51A G60A | < 1e-05 | < 1e-05 | – | – | – |
| G7C G43A U69C | < 1e-05 | < 1e-05 | – | – | – |
| G7C C11U C61A C70G | < 1e-05 | – | – | < 1e-05 | – |
| A6U G32U G40U | < 1e-05 | – | < 1e-05 | < 1e-05 | – |
| C8A C71U | < 1e-05 | < 1e-05 | < 1e-05 | < 1e-05 | < 1e-05 |
| G7U G35C U55G A64C | < 1e-05 | – | – | – | – |
| G7U C11G G41U G44U | < 1e-05 | < 1e-05 | – | – | – |
| G7C G13C | < 1e-05 | < 1e-05 | < 1e-05 | < 1e-05 | < 1e-05 |
| A6U U57C G59A | < 1e-05 | – | – | – | – |
| A6U U30G | < 1e-05 | – | – | – | – |

| Variant | self-cleavage kobs at 40 uM GlcN6P (glucosamine-6-phosphate [1]) [s⁻¹] | self-cleavage kobs at 10000 uM GlcN6P (glucosamine-6-phosphate [2]) [s⁻¹] | self-cleavage kobs at 640 uM GlcN6P (glucosamine-6-phosphate [3]) [s⁻¹] | self-cleavage kobs at 2500 uM GlcN6P (glucosamine-6-phosphate [4]) [s⁻¹] | self-cleavage kobs at 160 uM GlcN6P (glucosamine-6-phosphate [5]) [s⁻¹] |
| --- | --- | --- | --- | --- | --- |
| G7U G13C C71U | < 1e-05 | < 1e-05 | – | – | – |
| G7A G13U U69G C71A | 0.00031 ± 7.3e-05 | 0.000516 ± 0.00016 | – | – | – |
| G7A A15U G29A G35U | < 1e-05 | < 1e-05 | – | < 1e-05 | – |
| A6U G37A | < 1e-05 | – | – | – | < 1e-05 |
| A6U G66C | < 1e-05 | – | < 1e-05 | – | – |
| G7U C67U | < 1e-05 | – | – | < 1e-05 | < 1e-05 |
| A6U U30G U65C | < 1e-05 | < 1e-05 | < 1e-05 | – | – |
| G7U U31G | < 1e-05 | < 1e-05 | < 1e-05 | < 1e-05 | < 1e-05 |
| G7C C70U | < 1e-05 | – | < 1e-05 | – | < 1e-05 |
| C8A A39U | < 1e-05 | – | < 1e-05 | < 1e-05 | – |
| G7A A14U | < 1e-05 | – | < 1e-05 | – | < 1e-05 |
| C8A G29A | < 1e-05 | < 1e-05 | – | – | – |
| G7C G38A | < 1e-05 | – | – | – | < 1e-05 |
| G7A A48C | < 1e-05 | – | – | – | – |
| A6U G44U | < 1e-05 | < 1e-05 | < 1e-05 | < 1e-05 | < 1e-05 |
| G7C U31C U46A U54G | < 1e-05 | < 1e-05 | – | – | – |
| G7C A14C | < 1e-05 | < 1e-05 | < 1e-05 | < 1e-05 | – |
| G7U G59C | < 1e-05 | < 1e-05 | < 1e-05 | < 1e-05 | < 1e-05 |
| G7U G43A C67G C68U | < 1e-05 | < 1e-05 | – | – | – |
| G7C G32C | < 1e-05 | – | < 1e-05 | – | < 1e-05 |
| G7C G32U | < 1e-05 | < 1e-05 | < 1e-05 | < 1e-05 | – |
| C8A A12C A15G C50U U56G G62U | < 1e-05 | – | – | – | – |
| G7C A42G U56G | < 1e-05 | < 1e-05 | – | – | – |
| G7C C8G G29U G63U C70U | < 1e-05 | < 1e-05 | – | – | – |

— the supplement of paper PMC7125110
